Over roughly 33,000 sequences, “E-score (-0.5 to 0.5)” has its median near -0.054; the highest 2% begin near 0.35. This is one part of the list.
Target: T1, Stb5 (UniProt P38699)
T1 sequence: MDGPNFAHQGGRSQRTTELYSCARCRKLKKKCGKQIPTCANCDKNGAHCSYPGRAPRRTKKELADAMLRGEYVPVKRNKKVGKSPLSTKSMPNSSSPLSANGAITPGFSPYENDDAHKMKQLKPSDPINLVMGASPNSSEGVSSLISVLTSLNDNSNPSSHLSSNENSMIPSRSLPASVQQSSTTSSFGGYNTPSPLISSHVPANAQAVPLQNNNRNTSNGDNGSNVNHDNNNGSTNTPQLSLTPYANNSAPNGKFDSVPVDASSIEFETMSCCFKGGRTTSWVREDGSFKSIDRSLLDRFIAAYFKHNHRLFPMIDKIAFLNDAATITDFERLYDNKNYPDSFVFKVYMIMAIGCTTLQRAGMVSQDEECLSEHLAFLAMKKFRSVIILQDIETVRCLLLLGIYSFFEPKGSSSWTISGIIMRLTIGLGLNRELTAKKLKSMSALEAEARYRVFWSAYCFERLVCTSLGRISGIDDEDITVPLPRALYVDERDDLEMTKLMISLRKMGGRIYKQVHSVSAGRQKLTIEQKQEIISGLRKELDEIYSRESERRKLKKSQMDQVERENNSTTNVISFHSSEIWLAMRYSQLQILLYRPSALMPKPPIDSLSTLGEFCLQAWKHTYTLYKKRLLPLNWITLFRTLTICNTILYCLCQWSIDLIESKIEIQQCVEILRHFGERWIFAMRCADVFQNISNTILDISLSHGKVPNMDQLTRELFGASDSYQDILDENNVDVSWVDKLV
Assay: PBM E-score (8-mer binding enrichment) (E-score (-0.5 to 0.5)); higher = stronger / more preferred TF binding; most listed sequences are background and not binding sites
Details: protein concentration: 200 nM; construct: GST-full length
How it was run: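 Masliner-normalised scans of fluorescent anti-GST signal were the basis for scoring. That signal came from GST-tagged yeast transcription factors applied at about 100-200 nM to double-stranded universal all-10-mer Agilent arrays on fresh or once-stripped slides. Each ungapped eight-base word, pooled with its reverse complement, received an E-score from the Universal PBM Analysis Suite.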

| Sequence | PBM E-score |
| --- | --- |
| AATCGGCC | 0.234 |
| GGTGATTA | 0.285 |
| AACGGGCT | 0.238 |
| ACCCTCCA | -0.252 |
| AACTTGCG | 0.116 |
| ATCAGACA | -0.121 |
| CTAGTTAC | -0.0323 |
| GTACATTA | -0.0599 |
| AAGGATTA | -0.202 |
| AGGTTGAC | -0.0996 |
| CTAATAAG | -0.149 |
| ACCTGCAT | -0.0696 |
| ATCCTCAT | -0.308 |
| GGTCCGCA | 0.191 |
| AGGCAGTC | -0.149 |
| CCTTCTCC | -0.235 |
| CCAACGTC | -0.0945 |
| AACGAAGC | -0.141 |
| CGACACGA | 0.112 |
| CTCAATTA | -0.146 |
| ACTAGCAT | -0.237 |
| CAGACGGA | 0.297 |
| ACATATTC | -0.192 |
| AAACCTGT | -0.166 |
| AAGGCATG | -0.275 |

| Sequence | PBM E-score |
| --- | --- |
| AGGCGTAA | -0.14 |
| CGCATACC | 0.199 |
| GTAGCATA | -0.00706 |
| TTAAAAAA | -0.124 |
| CGAGCGAG | -0.0911 |
| GTAAGGAA | -0.242 |
| CGTAATAC | 0.172 |
| CCGCTGGA | 0.233 |
| ACCCCGTG | 0.367 |
| ATTATTCG | 0.0321 |
| ATAAACAA | -0.0366 |
| CTCATGAA | -0.0191 |
| AGTTTGTG | -0.0549 |
| CTCCTTCA | -0.187 |
| CAGGGGCA | -0.2 |
| AGGGATAT | -0.0936 |
| GTCAAACA | -0.0353 |
| CCCATGGC | -0.0738 |
| GCGTAACA | 0.0736 |
| AATTTGCA | -0.18 |
| CCGTATCC | 0.196 |
| CATGTGCC | -0.177 |
| GTCCCGTA | 0.101 |
| ATCCACGG | 0.233 |
| CACACTAC | -0.137 |

| Sequence | PBM E-score |
| --- | --- |
| AATTTAAC | 0.121 |
| GGCACTAC | 0.32 |
| CGATTTAG | 0.0345 |
| GCGCTAAA | 0.114 |
| GTTCGTTA | -0.16 |
| AAGTCGGT | 0.324 |
| CGGTTGAG | 0.0856 |
| ATGTGCGG | 0.143 |
| ACTATTCC | 0.155 |
| GGTACTGA | 0.0384 |
| GAGTCGCC | -0.0341 |
| ACCTTGCC | -0.0476 |
| ACGCCAAC | 0.0115 |
| GGCCGAGA | 0.0406 |
| TGCTGGAA | -0.143 |
| CAACACAG | -0.293 |
| GGCGTTGA | 0.0551 |
| GTTACTGA | 0.0915 |
| AACGCGTA | 0.0518 |
| AGAACACG | -0.123 |
| GATATTAC | 0.223 |
| AGCGGTGC | 0.396 |
| CGCGTTTC | -0.107 |
| CATGCAGA | -0.212 |
| AGCGGCAC | 0.355 |

| Sequence | PBM E-score |
| --- | --- |
| CTAGGCTA | -0.053 |
| AATCGTAT | -0.0497 |
| AGGTGTAG | -0.304 |
| GGGTAACC | 0.00382 |
| AAATATTC | -0.0591 |
| CGAGTAAA | -0.0862 |
| CCCTTGGC | -0.224 |
| AAATAGAA | 0.023 |
| GTCTGGGA | -0.23 |
| AATAATGT | -0.0122 |
| CACATGAC | -0.243 |
| CGAACGGA | 0.312 |
| ACAAACAT | 0.0373 |
| AAAAGCTG | -0.13 |
| GTAACGCA | -0.0529 |
| CCAGAGTC | -0.105 |
| ATGTCTTA | -0.199 |
| CCAGCTAA | -0.286 |
| ATTCAGTA | -0.0644 |
| ACACGGGT | -0.0903 |
| ACCTACAC | -0.273 |
| GACCGGCA | 0.32 |
| GTGATGAA | -0.251 |
| TCCCAAGA | -0.232 |
| GTAATGCA | -0.124 |

| Sequence | PBM E-score |
| --- | --- |
| CCAAGTGC | -0.117 |
| GACCCGGA | 0.228 |
| GACATGGC | -0.145 |
| CATACCCG | 0.122 |
| ACACGCCC | 0.0486 |
| GGAATCAA | -0.0513 |
| GAGTACAA | -0.102 |
| ATAGTGAA | -0.2 |
| CCCGAGCA | -0.166 |
| CGGACAAC | 0.144 |
| GCTGTTCA | -0.251 |
| ACAGAATA | -0.112 |
| GAATACAC | -0.0302 |
| TAGGACAA | -0.287 |
| GCAAGTGA | -0.0206 |
| AGGTTACA | -0.182 |
| CCCGTGGC | 0.127 |
| AATCCAAA | 0.0752 |
| GCCACCTA | -0.0858 |
| GTGCAGCA | -0.0174 |
| CATGGGCA | -0.0853 |
| AATTCACG | -0.237 |
| CCCCTCAA | -0.0923 |
| AAGGTGTG | -0.24 |
| GGGCTTAC | 0.338 |

| Sequence | PBM E-score |
| --- | --- |
| ACAGGGCT | -0.219 |
| GTACCCCA | -0.121 |
| CTACGTCC | 0.226 |
| ACATTACC | 0.119 |
| ATTTAAGA | -0.173 |
| ACGTAGCC | -0.129 |
| ATTAGCCA | -0.337 |
| CCGGGGAC | 0.202 |
| GTCTATCA | -0.0088 |
| ACATGATA | -0.0498 |
| ACCTCGAA | -0.122 |
| ACAGGAAA | -0.0972 |
| ACCGGAAG | 0.181 |
| AGAGCTAT | -0.195 |
| GTCTACAC | 0.0371 |
| CATCCCTA | -0.158 |
| CCTACTGC | -0.271 |
| AACTAACA | 0.0185 |
| GTCAGTAA | -0.0707 |
| AATATCCG | 0.39 |
| AGTAACCA | -0.146 |
| AACCACTC | -0.138 |
| AAGCATCT | -0.189 |
| CGAGCGAC | -0.15 |
| CCCTATCA | -0.21 |

| Sequence | PBM E-score |
| --- | --- |
| ACAATTGT | -0.239 |
| ACCTATGA | -0.124 |
| AAGTAGGG | -0.236 |
| CAACCTAC | -0.0287 |
| AACTGGGC | -0.0587 |
| AGGGCCGG | 0.271 |
| AACTTTTC | -0.103 |
| GGGACGCA | -0.134 |
| AACATCCC | 0.149 |
| CAGTATTA | -0.141 |
| ACGAGAAT | 0.00633 |
| CGCACTAG | -0.162 |
| CTATCCCC | 0.276 |
| AATTGACC | 0.174 |
| CAGGACGA | -0.0341 |
| AGGTTCCC | -0.226 |
| CGCTCTAG | 0.131 |
| AAACTGCA | -0.273 |
| CTCTGTAA | -0.0939 |
| GCTTCCGA | 0.0339 |
| ATATGGTG | 0.0157 |
| CCAACTTC | -0.242 |

From the supplement of paper PMC3334620
